# Hit rate of the full screen: of about 50,000 compounds, about 800 (1.6%) showed an effect of 50% or more. This is one part of the list.
# Target: Bcl-2-like protein 10 (Homo sapiens) (UniProt Q9HD36)
# Assay: TR3 peptide-Bcl-B binding displacers, biochemical primary FP assay, phenotype converters (AID 1240);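 note: 0% = Bcl-B with tracer peptide and DMSO and 100% = tracer peptide lacking Bcl-B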
# Details: GST-Bcl-B / FITC-TR3 peptide fluorescence polarization; stronger effect = higher value; compound at 3.75 mg/L
# Sequence of UniProt Q9HD36 (Q9HD36 whole entry, looked up): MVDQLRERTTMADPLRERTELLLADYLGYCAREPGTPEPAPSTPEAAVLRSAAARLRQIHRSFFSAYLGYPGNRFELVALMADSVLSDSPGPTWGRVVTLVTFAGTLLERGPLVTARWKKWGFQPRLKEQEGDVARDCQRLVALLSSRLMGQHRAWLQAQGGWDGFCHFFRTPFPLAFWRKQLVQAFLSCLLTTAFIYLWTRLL
row,Structure (SMILES),displacement [%]
1,CN(C)c1ccc(P(=O)(c2ccc(N(C)C)cc2)c2ccc(N(C)C)cc2)cc1,20.4
2,O=C(NCCOc1ccccc1F)c1ccc(CSc2ccc(Cl)cc2)cc1,-5
3,COc1ccc(CNC(=O)c2cccc([N+](=O)[O-])c2)cc1,-7.5
4,COC(=O)C1=C(C)N(C)C(C)=C(C(=O)OC)C1c1cccc(OCc2ccccc2)c1,10.8
5,C(/C=C/c1ccco1)=N/N1CCN(c2ccccc2)CC1,1.1
6,O=C(COc1ccc(-c2ccccc2)cc1)NCc1ccco1,6.6
7,COc1ccccc1OCc1cc(C(=O)O)oc1C,9.4
8,COc1ccc(N2C(=O)/C(=C\c3cc(OC)ccc3O)SC2=S)cc1,6.4
9,CCOC(=O)c1ccc(-n2c(CN3C(=O)c4ccccc4C3=O)nc3ccccc3c2=O)cc1,13.8
10,CCCOc1ccccc1C1CC(=O)Nc2c1ccc1ccccc21 (centres undefined),-7.2
11,COc1cc(OC)cc(C(=O)N/N=C(\C)CC(=O)Nc2ccc(Br)cc2)c1,-1.4
12,COc1cc(CNc2ccc(Br)cc2C)cc(OC)c1OC,13.2
13,COc1ccc(NC(=O)c2nn3c(c2Br)NC(c2cccs2)CC3C(F)(F)F)cc1OC (centres undefined),-4.6
14,COc1cc(C=NN2CCN(c3ccc(Cl)cc3)CC2)ccc1OCc1ccccc1,-15.6
15,CN(C)CCOC(=O)C12CCC3CC(CC(C3)C1)C2,11.3
16,COc1ccc(C(NC(=O)Cc2ccccc2)NC(=O)Cc2ccccc2)cc1OC,2.8
17,COC(=O)c1ccc(-c2ccc(C=C3C(=O)N(C)C(=O)N(C)C3=O)o2)cc1,8
18,Fc1ccc(-c2nc(-c3ccc(C(F)(F)F)cc3)no2)cc1,-1.2
19,CC(=O)c1ccc(NC(=O)c2ccc(-c3ccc(Cl)cc3Cl)o2)cc1,-1.3
20,Cc1ccc(C(C)C)c(OCC(=O)N/N=C/c2ccncc2)c1,-32.2
21,COc1ccc(CCNS(=O)(=O)c2ccccc2[N+](=O)[O-])cc1OC,-6.5
22,COc1ccc(C(=O)Nc2ccccc2C(=O)NC2CCCCC2)cc1,1
23,COc1ccc(CC2S/C(=N\N=C\c3ccc(O)cc3)NC2=O)cc1 (centres undefined),-19.1

row,Structure (SMILES),displacement [%]
1,O=C(Nc1ccc(Cl)c(Cl)c1)Nc1nnc(Cc2ccccc2)s1,11
2,CCCCOc1cccc(C(=O)Nc2ccc([N+](=O)[O-])cc2OC)c1,6.5
3,COc1ccc(C(=O)C=C(Cl)Cl)cc1,1.2
4,Cc1cccnc1N1C(=O)C2C3c4ccccc4C(c4ccccc43)C2C1=O (centres undefined),10.1
5,CCOc1ccc(C2C(C(=O)OC)=C(C)NC(C)=C2C(=O)OC)cc1OC,-4.5
6,COc1cc2c(cc1NS(=O)(=O)c1ccc3ccccc3c1)oc1ccccc12,37.9
7,O=C(Nc1ncccc1Cl)C1CC1c1ccccc1 (centres undefined),-6
8,O=C1C2C3c4ccccc4C(c4ccccc43)C2C(=O)N1Cc1ccc(F)cc1 (centres undefined),-11.9
9,O=C(O)c1cccc(NS(=O)(=O)c2cccc(S(=O)(=O)c3ccc(Br)cc3)c2)c1,-5.9
10,COc1ccc2c(c1)C1=NN(/C(C)=C/C(C)=O)C(c3ccc(F)cc3)C1CC2 (centres undefined),9.3
11,COC(=O)C12CCC3(SCCS3)C(C(=O)OC)(CCC13SCCS3)C2,3.6
12,COc1c(OC(C)=O)ccc(/C=N\NC(=O)COc2ccc(C)cc2)c1[N+](=O)[O-],9.4
13,O=C(c1ccco1)N1CCN(C(=O)c2cccs2)CC1,-0.4
14,O=C(/C=C/c1cccc(C(F)(F)F)c1)Nc1ccccc1Cl,7
15,COc1ccc(C(=O)Nc2ccccc2)cc1NC(=O)COc1ccc(F)cc1,2.3
16,Cc1ccc(-c2cc(C(=O)NC(C)C)c3ccccc3n2)cc1,6.6
17,COc1cccc(CN2CCN(C(=O)c3cccc(Cl)c3)CC2)c1,3.6
18,O=CN1CCN(C(=O)c2ccc(C#Cc3ccccc3)cc2)CC1,-5.1
19,Cc1cc(C)n(C(=O)CNC(=O)c2ccc(Cl)cc2)n1,15.9
20,C=CCO/N=C(\CCC)C1=C(N2CCCC2)CC(C)(C)CC1=O,-1.5
21,COc1cc(/C=C2/SC(=S)N(c3c(C)n(C)n(-c4ccccc4)c3=O)C2=O)c([N+](=O)[O-])cc1OC,61.3
22,O=C(Nc1ccccc1C(=O)Nc1ccccc1)c1ccc(F)cc1,-7.3
23,Cc1cc(C)cc(N(CC(=O)O)S(=O)(=O)c2ccccc2)c1,-0.2

row,Structure (SMILES),displacement [%]
1,CC(C)C(NC(=O)C12CC3CC(CC(C3)C1)C2)C(=O)N/N=C/c1ccccc1C(F)(F)F (centres undefined),-11.3
2,CC(=O)N1CCN(c2nc(OC(C(F)(F)F)C(F)(F)F)nc(N(c3ccccc3)c3ccccc3)n2)CC1,8.1
3,O=C(Nc1ccc2c(c1)OCO2)c1ccc(C#CC2(O)CCCCC2)cc1,-1.9
4,Cc1cccc(NC(=O)c2cnccn2)c1C,-0.8
5,Nc1nonc1-c1nc2ccccc2[nH]1,11
6,O=C(c1ccc([N+](=O)[O-])cc1Cl)N1CCC(Cc2ccccc2)CC1,-10.9
7,CCn1c(C)nc2c(Br)c(O)ccc21,-13.1
8,CCN1C(=O)/C(=C/c2ccc(-c3ccccc3[N+](=O)[O-])o2)SC1=S,0.8
9,O=C(NNC(=O)c1cccc(Cl)c1)C(=O)N1CCCCC1,-11.5
10,Cn1c(SCC(=O)N/N=C/c2ccco2)nc2ccccc21,-7.4
11,N#CC1=C(N)Oc2c(sc3ccccc23)C1c1ccc(Br)o1 (centres undefined),11.8
12,O=C1CC(N2CCSCC2)C(=O)N1c1ccc(F)cc1 (centres undefined),7.1
13,Cn1c(=O)c2c(nc(NCCO)n2C)n(C)c1=O,0.2
14,COCCOC(=O)C1=C(C)NC(C)=C(C(=O)OCCOC)C1c1cn(-c2ccccc2)nc1-c1cccc([N+](=O)[O-])c1,5.4
15,CCOc1cccc(C(=O)Nc2ccccc2-c2ccccc2)c1,3.2
16,CN(C)c1ccc(/C=C/C(=O)/C=C/c2ccc(N(C)C)cc2)cc1,-13.3
17,CCc1ccccc1NC(=O)CN(c1ccc(OC)cc1)S(C)(=O)=O,-0.6
18,COc1cc(OC)c(C=C2C(=O)NC(=S)NC2=O)cc1Br,1.7
19,COC(=O)c1c(NC(=O)c2cccc(C)c2)sc(Cc2ccccc2)c1C,-4.2
20,CCOC(=O)C1=CS/C(=C2/C(=S)C(C)(C)Nc3ccc(C)cc32)S1,13
21,Cc1cccc(-n2c(C)cc(/C=N/NC(N)=S)c2C)c1,-25.5
22,Cc1cccc(N2C(=O)/C(=C/c3ccccc3[N+](=O)[O-])SC2=S)c1,9.9
23,CCOc1ccccc1NC(=O)c1c(NC(=O)c2cccs2)sc2c1CCC2,3
